Measurements published in patent US20170253656A1.
Residue numbers refer to the chain shown, from its start.

B1: 1275-C10 light chain paired with HC 1251-A06 (SEQ ID NO: 310) (antibody)
heavy: MQVQLVESGGGVVQPGRSLRLSCAASGFDFSSYGMHWVRQAPDKGLEWVAVIWDDGSDRYYADSVKGRFTISRDNSKNTLYLQMNSLRAEDTAVYYCARGGTRVLGAIHGTDVWGQGTTVTVSS[human IgG1 constant region omitted]GGSHHHHHH
VL: DIQMTQSPSSLSASVGDRVTITCRASQGVSSWLAWYQQKPEKAPKSLIYSARYLQSGVPSRFSGSGSGTDFTLTISSLQPEDFATYYCQQYNLYPLTFGGGTKVEIK
B2: 1275-D01 light chain paired with HC 1251-A06 (SEQ ID NO: 310) (antibody, human IgG1)
heavy: B1 heavy
VL: B1 VL with V29I, S30G, S31R, S50G, A51R, R52S, Y53S, L93I
B3: 1275-D10 light chain paired with HC 1251-A06 (SEQ ID NO: 310) (antibody, human IgG1)
heavy: B1 heavy
VL: B1 VL with S30F, S50N, R52T, Y53Q, N92Y, L93Y
B4: 1275-G02 light chain paired with HC 1251-F07 (SEQ ID NO: 311) (antibody, human IgG1)
heavy: B1 heavy with D29T, Y33H, D58N, R59E, Y60V, V104I, L105R, A107L, I108R, H109Y
VL: B1 VL with V29L, S30G, W32F, S50L, A51G, R52N, Y53L, S56I, L93A
B5: HC 1251_A06 (g)/LC 1275_C10 (wt) (antibody, human IgG1, kappa)
heavy: MQVQLVESGGGVVQPGRSLRLSCAASGFDFSSYGMHWVRQAPGKGLEWVAVIWDDGSDRYYADSVKGRFTISRDNSKNTLYLQMNSLRAEDTAVYYCARGGTRVLGAIHGTDVWGQGTTVTVSS[human IgG1 constant region omitted]
light: MDIQMTQSPSSLSASVGDRVTITCRASQGVSSWLAWYQQKPEKAPKSLIYSARYLQSGVPSRFSGSGSGTDFTLTISSLQPEDFATYYCQQYNLYPLTFGGGTKVEIKRTVAAPSVFIFPPSDEQLKSGTASVVCLLNNFYPREAKVQWKVDNALQSGNSQESVTEQDSKDSTYSLSSTLTLSKADYEKHKVYACEVTHQGLSSPVTKSFNRGEC
B6: HC 1251_A06 (g)/LC 1275_C10 (g) (antibody, human IgG1, kappa)
heavy: B5 heavy
light: B5 light with L12V, E42G, S47L
B7: HC 1251_A06 (g)/LC 1337_A09 (wt) (antibody, human IgG1, kappa)
heavy: B5 heavy
light: B5 light with V30I, S31G, S51A, R53D, Y54R, N93H, L94T
B8: HC 1251_A06 (g)/LC 1337_A09 (g) (antibody, human IgG1, kappa)
heavy: B5 heavy
light: B5 light with L12V, V30I, S31G, E42G, S47L, S51A, R53D, Y54R, N93H, L94T
B9: HC 1251_A06 (g)/LC 1337_A07 (wt) (antibody, human IgG1, kappa)
heavy: B5 heavy
light: B5 light with V30I, L34V, S51G, R53S, Y54R, N93H, L94T
B10: HC 1251_A06 (g)/LC 1337_A07 (g) (antibody, human IgG1, kappa)
heavy: B5 heavy
light: B5 light with L12V, V30I, L34V, E42G, S47L, S51G, R53S, Y54R, N93H, L94T
B11: HC 1251_A06 (g)/LC 1337_A10 (wt) (antibody, human IgG1, kappa)
heavy: B5 heavy
light: B5 light with V30I, L34V, S51G, A52S, R53S, Y54R, L94T
B12: HC 1251_A06 (g)/LC 1337_A10 (g) (antibody, human IgG1, kappa)
heavy: B5 heavy
light: B5 light with L12V, V30I, L34V, E42G, S47L, S51G, A52S, R53S, Y54R, L94T
B13: HC 1251_B08 (g)/LC 1275_C10 (wt) (antibody, human IgG1, kappa)
heavy: B5 heavy with D29N, S32D, D54Y, D58I, R59S, R103V, V104E, L105H, I108V, H109Y
light: B5 light
B14: HC 1251_B08 (g)/LC 1275_C10 (g) (antibody, human IgG1, kappa)
heavy: B5 heavy with D29N, S32D, D54Y, D58I, R59S, R103V, V104E, L105H, I108V, H109Y
light: B5 light with L12V, E42G, S47L
B15: HC 1251_B08 (g)/LC 1337_A09 (wt) (antibody, human IgG1, kappa)
heavy: B5 heavy with D29N, S32D, D54Y, D58I, R59S, R103V, V104E, L105H, I108V, H109Y
light: B5 light with V30I, S31G, S51A, R53D, Y54R, N93H, L94T
B16: HC 1251_B08 (g)/LC 1337_A09 (g) (antibody, human IgG1, kappa)
heavy: B5 heavy with D29N, S32D, D54Y, D58I, R59S, R103V, V104E, L105H, I108V, H109Y
light: B5 light with L12V, V30I, S31G, E42G, S47L, S51A, R53D, Y54R, N93H, L94T
B17: HC 1251_B08 (g)/LC 1337_A07 (wt) (antibody, human IgG1, kappa)
heavy: B5 heavy with D29N, S32D, D54Y, D58I, R59S, R103V, V104E, L105H, I108V, H109Y
light: B5 light with V30I, L34V, S51G, R53S, Y54R, N93H, L94T
B18: HC 1251_B08 (g)/LC 1337_A07 (g) (antibody, human IgG1, kappa)
heavy: B5 heavy with D29N, S32D, D54Y, D58I, R59S, R103V, V104E, L105H, I108V, H109Y
light: B5 light with L12V, V30I, L34V, E42G, S47L, S51G, R53S, Y54R, N93H, L94T
B19: HC 1251_B08 (g)/LC 1337_A10 (wt) (antibody, human IgG1, kappa)
heavy: B5 heavy with D29N, S32D, D54Y, D58I, R59S, R103V, V104E, L105H, I108V, H109Y
light: B5 light with V30I, L34V, S51G, A52S, R53S, Y54R, L94T
B20: HC 1251_B08 (g)/LC 1337_A10 (g) (antibody, human IgG1, kappa)
heavy: B5 heavy with D29N, S32D, D54Y, D58I, R59S, R103V, V104E, L105H, I108V, H109Y
light: B5 light with L12V, V30I, L34V, E42G, S47L, S51G, A52S, R53S, Y54R, L94T

Molecular target: CD74 on CD74 positive SU-DHL-6 cells, P04233
Experiment: cell-based or functional assay

Binder	2nd ADC Cell Killing IC50 [pM]	2ND ADC CELL KILL ACTIVITY IC50 [pM]
B1	3.4	–
B2	0.3	–
B3	7	–
B4	20	–
B5	–	10
B6	–	7
B7	–	4
B8	–	2
B9	–	1
B10	–	5
B11	–	2
B12	–	5
B13	–	18
B14	–	11
B15	–	25
B16	–	10
B17	–	13
B18	–	6
B19	–	3
B20	–	7
